# Laboratory results from the supplement of paper PMC8728848.
# The list shows a part of the results.
# Experiments:
# Assay in all cases: glycan array binding signal (z-score within array); higher = stronger binding
# Details in all cases: glycan notation: IUPAC condensed, linker removed
# Gal(a1-6)Glc = target: Gal(a1-6)Glc
# Summary of the method: (§1)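 Glycan array binding is given as a within-array Z-score, which can be read as non-binding when negative. The arrays, 3228 of them, came from the Consortium for Functional Glycomics database and were retained only where the protein sequence was available. Z-scores were averaged across arrays of the same protein sequence at different concentrations or buffers and across linkers.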
# Gal(b1-2)Gal = target: Gal(b1-2)Gal
# Summary of the method: as §1
# Gal(b1-3)Gal = target: Gal(b1-3)Gal
# Summary of the method: as §1
# Gal(b1-3)Gal(b1-4)GlcNAc = target: Gal(b1-3)Gal(b1-4)GlcNAc
# Summary of the method: as §1
# Gal(b1-3)GalNAc = target: Gal(b1-3)GalNAc
# Summary of the method: as §1
# [1] = target: Gal(b1-3)GalNAc(a1-3)[Fuc(a1-2)]Gal(b1-4)Glc
# Summary of the method: as §1
# [2] = target: Gal(b1-3)GalNAc(a1-3)[Fuc(a1-2)]Gal(b1-4)GlcNAc
# Summary of the method: as §1
# Gal(b1-3)GalNAc(b1-3)Gal = target: Gal(b1-3)GalNAc(b1-3)Gal
# Summary of the method: as §1
# [3] = target: Gal(b1-3)GalNAc(b1-3)Gal(a1-4)Gal(b1-4)Glc
# Summary of the method: as §1
# [4] = target: Gal(b1-3)GalNAc(b1-4)Gal(b1-4)Glc
# Summary of the method: as §1
# [5] = target: Gal(b1-3)GalNAc(b1-4)[Neu5Ac(a2-3)]Gal(b1-4)Glc
# Summary of the method: as §1
# Gal(b1-3)GlcNAc = target: Gal(b1-3)GlcNAc
# Summary of the method: as §1
# [6] = target: Gal(b1-3)GlcNAc(a1-3)Gal(b1-4)GlcNAc
# Summary of the method: as §1
# [7] = target: Gal(b1-3)GlcNAc(a1-6)Gal(b1-4)GlcNAc
# Summary of the method: as §1
# Gal(b1-3)GlcNAc(b1-2)Man = target: Gal(b1-3)GlcNAc(b1-2)Man
# Summary of the method: as §1
# [8] = target: Gal(b1-3)GlcNAc(b1-2)Man(a1-3)[Gal(b1-3)GlcNAc(b1-2)Man(a1-6)]Man(b1-4)GlcNAc(b1-4)GlcNAc
# Summary of the method: as §1
# [9] = target: Gal(b1-3)GlcNAc(b1-2)Man(a1-3)[Gal(b1-3)GlcNAc(b1-2)Man(a1-6)]Man(b1-4)GlcNAc(b1-4)[Fuc(a1-6)]GlcNAc
# Summary of the method: as §1
# [10] = target: Gal(b1-3)GlcNAc(b1-2)Man(a1-3)[GlcNAc(b1-4)][Gal(b1-3)GlcNAc(b1-2)Man(a1-6)]Man(b1-4)GlcNAc(b1-4)GlcNAc
# Summary of the method: as §1
# [11] = target: Gal(b1-3)GlcNAc(b1-2)[Gal(b1-3)GlcNAc(b1-6)]Man(a1-6)[Gal(b1-3)GlcNAc(b1-2)Man(a1-3)]Man(b1-4)GlcNAc(b1-4)GlcNAc
# Summary of the method: as §1
# [12] = target: Gal(b1-3)GlcNAc(b1-3)Gal(b1-3)GlcNAc
# Summary of the method: as §1
# [13] = target: Gal(b1-3)GlcNAc(b1-3)Gal(b1-4)Glc
# Summary of the method: as §1
# [14] = target: Gal(b1-3)GlcNAc(b1-3)Gal(b1-4)GlcNAc
# Summary of the method: as §1
# [15] = target: Gal(b1-3)GlcNAc(b1-3)Gal(b1-4)GlcNAc(b1-2)Man(a1-3)[Gal(b1-3)GlcNAc(b1-3)Gal(b1-4)GlcNAc(b1-2)Man(a1-6)]Man(b1-4)GlcNAc(b1-4)GlcNAc
# Summary of the method: as §1
# [16] = target: Gal(b1-3)GlcNAc(b1-3)Gal(b1-4)GlcNAc(b1-2)[Gal(b1-3)GlcNAc(b1-3)Gal(b1-4)GlcNAc(b1-6)]Man(a1-6)[Gal(b1-3)GlcNAc(b1-3)Gal(b1-4)GlcNAc(b1-2)Man(a1-3)]Man(b1-4)GlcNAc(b1-4)[Fuc(a1-6)]GlcNAc
# Summary of the method: as §1
# [17] = target: Gal(b1-3)GlcNAc(b1-3)Gal(b1-4)GlcNAc(b1-3)Gal(b1-4)GlcNAc(b1-2)[Gal(b1-3)GlcNAc(b1-3)Gal(b1-4)GlcNAc(b1-3)Gal(b1-4)GlcNAc(b1-6)]Man(a1-6)[Gal(b1-3)GlcNAc(b1-3)Gal(b1-4)GlcNAc(b1-3)Gal(b1-4)GlcNAc(b1-2)Man(a1-3)]Man(b1-4)GlcNAc(b1-4)[Fuc(a1-6)]GlcNAc
# Summary of the method: as §1
# [18] = target: Gal(b1-3)GlcNAc(b1-3)Gal(b1-4)GlcNAc(b1-6)[Gal(b1-3)GlcNAc(b1-3)]Gal(b1-4)Glc
# Summary of the method: as §1
# [19] = target: Gal(b1-3)GlcNAc(b1-3)Gal(b1-4)[Fuc(a1-3)]GlcNAc
# Summary of the method: as §1
# [20] = target: Gal(b1-3)GlcNAc(b1-3)Gal(b1-4)[Fuc(a1-3)]GlcNAc(b1-6)[Gal(b1-3)GlcNAc(b1-3)]Gal(b1-4)Glc
# Summary of the method: as §1
# [21] = target: Gal(b1-3)GlcNAc(b1-3)GalNAc
# Summary of the method: as §1
# [22] = target: Gal(b1-3)GlcNAc(b1-6)Gal(b1-4)GlcNAc
# Summary of the method: as §1
# [23] = target: Gal(b1-3)GlcNAc(b1-6)GalNAc
# Summary of the method: as §1
# [24] = target: Gal(b1-3)GlcNAc(b1-6)[Gal(b1-3)]GalNAc
# Summary of the method: as §1
# Gal(b1-3)GlcNAc6S = target: Gal(b1-3)GlcNAc6S
# Summary of the method: as §1
# [25] = target: Gal(b1-3)[Fuc(a1-4)]GlcNAc
# Summary of the method: as §1
# [26] = target: Gal(b1-3)[Fuc(a1-4)]GlcNAc(b1-2)Man
# Summary of the method: as §1
# [27] = target: Gal(b1-3)[Fuc(a1-4)]GlcNAc(b1-2)Man(a1-3)[Gal(b1-3)[Fuc(a1-4)]GlcNAc(b1-2)Man(a1-6)]Man(b1-4)GlcNAc(b1-4)[Fuc(a1-6)]GlcNAc
# Summary of the method: as §1
# [28] = target: Gal(b1-3)[Fuc(a1-4)]GlcNAc(b1-3)Gal(b1-3)[Fuc(a1-4)]GlcNAc
# Summary of the method: as §1
# [29] = target: Gal(b1-3)[Fuc(a1-4)]GlcNAc(b1-3)Gal(b1-4)[Fuc(a1-3)]GlcNAc
# Summary of the method: as §1
# [30] = target: Gal(b1-3)[Fuc(a1-4)]GlcNAc(b1-6)GalNAc
# Summary of the method: as §1
# [31] = target: Gal(b1-3)[GlcNAc(b1-6)]GalNAc
# Summary of the method: as §1
# [32] = target: Gal(b1-3)[Neu5Ac(a2-6)]GalNAc
# Summary of the method: as §1
# [33] = target: Gal(b1-3)[Neu5Ac(a2-6)]GlcNAc(b1-4)Gal(b1-4)Glc
# Summary of the method: as §1
# [34] = target: Gal(b1-3)[Neu5Ac(b2-6)]GalNAc
# Summary of the method: as §1
# Gal(b1-4)Gal = target: Gal(b1-4)Gal
# Summary of the method: as §1
# [35] = target: Gal(b1-4)GalNAc(a1-3)[Fuc(a1-2)]Gal(b1-4)GlcNAc
# Summary of the method: as §1
binder,measurement,setting,value
Banana lectin (Musa acuminata) (protein) MNGAIKVGAWGGNGGSAFDMGPAYRIISVKIFSGDVVDGVDVTFTYYGKTETRHYGGSGGTPHEIVLQEGEYLVGMAGEVANYHGAVVLGKLGFSTNKKAYGPFGNTGGTPFSLPIAAGKISGFFGRGGKFLDAIGVYLEPLEHHHHHH,glycan array binding signal (z-score),Gal(a1-6)Glc,-0.231
same,glycan array binding signal (z-score),Gal(b1-2)Gal,-0.207
same,glycan array binding signal (z-score),Gal(b1-3)Gal,-0.227
same,glycan array binding signal (z-score),Gal(b1-3)Gal(b1-4)GlcNAc,-0.247
same,glycan array binding signal (z-score),Gal(b1-3)GalNAc,-0.206
same,glycan array binding signal (z-score),[1],-0.18
same,glycan array binding signal (z-score),[2],-0.175
same,glycan array binding signal (z-score),Gal(b1-3)GalNAc(b1-3)Gal,-0.212
same,glycan array binding signal (z-score),[3],-0.196
same,glycan array binding signal (z-score),[4],-0.278
same,glycan array binding signal (z-score),[5],-0.225
same,glycan array binding signal (z-score),Gal(b1-3)GlcNAc,-0.219
same,glycan array binding signal (z-score),[6],3.29
same,glycan array binding signal (z-score),[7],-0.019
same,glycan array binding signal (z-score),Gal(b1-3)GlcNAc(b1-2)Man,-0.219
same,glycan array binding signal (z-score),[8],0.694
same,glycan array binding signal (z-score),[9],0.187
same,glycan array binding signal (z-score),[10],1.07
same,glycan array binding signal (z-score),[11],0.504
same,glycan array binding signal (z-score),[12],-0.206
same,glycan array binding signal (z-score),[13],-0.206
same,glycan array binding signal (z-score),[14],-0.264
same,glycan array binding signal (z-score),[15],-0.106
same,glycan array binding signal (z-score),[16],0.634
same,glycan array binding signal (z-score),[17],0.372
same,glycan array binding signal (z-score),[18],-0.195
same,glycan array binding signal (z-score),[19],-0.216
same,glycan array binding signal (z-score),[20],-0.216
same,glycan array binding signal (z-score),[21],-0.218
same,glycan array binding signal (z-score),[22],-0.211
same,glycan array binding signal (z-score),[23],-0.193
same,glycan array binding signal (z-score),[24],0.054
same,glycan array binding signal (z-score),Gal(b1-3)GlcNAc6S,-0.18
same,glycan array binding signal (z-score),[25],-0.199
same,glycan array binding signal (z-score),[26],-0.215
same,glycan array binding signal (z-score),[27],0.091
same,glycan array binding signal (z-score),[28],-0.176
same,glycan array binding signal (z-score),[29],-0.231
same,glycan array binding signal (z-score),[30],-0.237
same,glycan array binding signal (z-score),[31],-0.223
same,glycan array binding signal (z-score),[32],-0.213
same,glycan array binding signal (z-score),[33],-0.235
same,glycan array binding signal (z-score),[34],-0.447
same,glycan array binding signal (z-score),Gal(b1-4)Gal,-0.228
same,glycan array binding signal (z-score),[35],-0.242
